# Laboratory results: ChEMBL document CHEMBL5252509, “In depth analysis of kinase cross screening data to identify chemical starting points for inhibition of the Nek family of kinases” (Medchemcomm, 2018)
# Legend:
# [1] = target: Serine/threonine-protein kinase Nek7 (Homo sapiens) (UniProt Q8TDX7); test: Inhibition of NEK7 (unknown origin) at 1 uM relative to control
# [2] = target: T1, Serine/threonine-protein kinase Nek3 (Homo sapiens) (UniProt P51956); test: Inhibition of NEK3 (unknown origin) at 1 uM relative to control
# T1 sequence (whole entry): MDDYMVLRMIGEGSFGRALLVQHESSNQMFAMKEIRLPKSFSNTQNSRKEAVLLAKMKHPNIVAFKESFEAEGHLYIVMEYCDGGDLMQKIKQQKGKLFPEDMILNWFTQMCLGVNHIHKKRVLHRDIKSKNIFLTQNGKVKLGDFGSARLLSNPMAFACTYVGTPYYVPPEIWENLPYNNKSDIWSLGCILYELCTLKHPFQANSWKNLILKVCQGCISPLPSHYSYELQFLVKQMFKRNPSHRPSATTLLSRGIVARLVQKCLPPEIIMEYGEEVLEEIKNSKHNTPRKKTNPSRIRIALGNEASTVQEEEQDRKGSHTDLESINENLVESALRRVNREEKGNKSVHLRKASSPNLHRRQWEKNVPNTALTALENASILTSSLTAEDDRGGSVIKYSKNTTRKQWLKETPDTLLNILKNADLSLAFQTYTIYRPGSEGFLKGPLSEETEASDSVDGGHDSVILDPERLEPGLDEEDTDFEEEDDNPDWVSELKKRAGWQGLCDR
# [3] = target: T2, Serine/threonine-protein kinase Nek11 (Homo sapiens) (UniProt Q8NG66); test: Inhibition of NEK11 (unknown origin) at 1 uM relative to control
# T2 sequence (whole entry): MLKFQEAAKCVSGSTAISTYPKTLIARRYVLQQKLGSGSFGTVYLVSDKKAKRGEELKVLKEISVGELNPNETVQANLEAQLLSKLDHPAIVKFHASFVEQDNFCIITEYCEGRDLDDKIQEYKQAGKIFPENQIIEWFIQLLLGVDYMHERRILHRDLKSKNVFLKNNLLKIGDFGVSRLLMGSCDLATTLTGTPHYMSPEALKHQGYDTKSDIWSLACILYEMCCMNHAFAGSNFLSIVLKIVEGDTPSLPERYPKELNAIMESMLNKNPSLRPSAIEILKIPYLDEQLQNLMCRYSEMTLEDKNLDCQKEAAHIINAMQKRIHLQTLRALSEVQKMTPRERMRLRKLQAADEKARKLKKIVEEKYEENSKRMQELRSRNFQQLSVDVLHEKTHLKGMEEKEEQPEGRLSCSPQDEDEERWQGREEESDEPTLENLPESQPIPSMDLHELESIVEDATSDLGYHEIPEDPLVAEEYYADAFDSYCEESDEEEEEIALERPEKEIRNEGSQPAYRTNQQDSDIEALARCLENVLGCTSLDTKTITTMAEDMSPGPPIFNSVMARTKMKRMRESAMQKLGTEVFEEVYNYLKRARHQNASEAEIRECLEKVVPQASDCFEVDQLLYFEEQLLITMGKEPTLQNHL
# [4] = target: T3, Serine/threonine-protein kinase Nek2 (Homo sapiens) (UniProt P51955); test: Inhibition of NEK2 (unknown origin) at 1 uM relative to control
# T3 sequence (whole entry): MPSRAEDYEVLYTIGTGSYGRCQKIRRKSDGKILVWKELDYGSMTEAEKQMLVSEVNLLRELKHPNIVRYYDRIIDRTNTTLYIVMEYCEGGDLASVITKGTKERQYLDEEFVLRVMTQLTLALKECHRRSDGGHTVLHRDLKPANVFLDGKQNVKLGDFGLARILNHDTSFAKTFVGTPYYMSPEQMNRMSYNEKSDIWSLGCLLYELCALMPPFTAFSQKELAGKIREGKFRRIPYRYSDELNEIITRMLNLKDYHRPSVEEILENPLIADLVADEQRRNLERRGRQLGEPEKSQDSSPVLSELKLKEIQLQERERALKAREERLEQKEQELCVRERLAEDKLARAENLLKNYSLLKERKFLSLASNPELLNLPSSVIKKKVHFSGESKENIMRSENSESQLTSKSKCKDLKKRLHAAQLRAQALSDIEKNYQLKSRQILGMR
# [5] = target: T4, Serine/threonine-protein kinase Nek10 (Homo sapiens) (UniProt Q6ZWH5); test: Inhibition of NEK10 (unknown origin) at 1 uM relative to control
# T4 sequence (whole entry): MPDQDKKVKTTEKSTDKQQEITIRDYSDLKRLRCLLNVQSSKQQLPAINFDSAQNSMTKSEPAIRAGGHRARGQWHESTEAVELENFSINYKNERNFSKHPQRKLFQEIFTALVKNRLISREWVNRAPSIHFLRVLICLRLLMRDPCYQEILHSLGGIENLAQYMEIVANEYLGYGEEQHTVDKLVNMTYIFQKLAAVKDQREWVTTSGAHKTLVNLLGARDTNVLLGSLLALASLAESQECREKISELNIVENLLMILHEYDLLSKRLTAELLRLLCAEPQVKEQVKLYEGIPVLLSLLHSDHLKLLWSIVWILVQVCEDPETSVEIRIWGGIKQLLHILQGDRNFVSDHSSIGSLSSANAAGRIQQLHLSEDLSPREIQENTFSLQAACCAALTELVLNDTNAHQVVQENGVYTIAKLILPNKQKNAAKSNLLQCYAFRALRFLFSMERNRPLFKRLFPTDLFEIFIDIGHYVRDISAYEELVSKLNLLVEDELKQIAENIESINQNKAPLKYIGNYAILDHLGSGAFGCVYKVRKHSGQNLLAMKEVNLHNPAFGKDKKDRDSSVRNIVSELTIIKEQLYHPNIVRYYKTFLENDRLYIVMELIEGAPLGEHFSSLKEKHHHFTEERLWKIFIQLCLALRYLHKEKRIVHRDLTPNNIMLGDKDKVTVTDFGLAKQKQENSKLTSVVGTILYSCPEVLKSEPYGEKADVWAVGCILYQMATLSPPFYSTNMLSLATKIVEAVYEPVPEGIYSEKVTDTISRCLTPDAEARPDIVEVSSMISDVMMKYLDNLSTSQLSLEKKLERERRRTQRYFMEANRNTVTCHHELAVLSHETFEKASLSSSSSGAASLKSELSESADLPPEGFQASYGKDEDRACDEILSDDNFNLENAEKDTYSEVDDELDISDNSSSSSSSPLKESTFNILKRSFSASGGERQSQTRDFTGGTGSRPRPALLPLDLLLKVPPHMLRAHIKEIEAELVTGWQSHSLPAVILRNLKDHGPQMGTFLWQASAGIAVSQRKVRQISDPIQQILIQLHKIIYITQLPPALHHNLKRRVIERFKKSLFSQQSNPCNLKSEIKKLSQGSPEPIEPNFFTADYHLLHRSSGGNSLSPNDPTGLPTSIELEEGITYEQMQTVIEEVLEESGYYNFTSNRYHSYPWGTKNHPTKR
# [6] = target: T5, Serine/threonine-protein kinase Nek5 (Homo sapiens) (UniProt Q6P3R8); test: Inhibition of NEK5 (unknown origin) at 1 uM relative to control
# T5 sequence (whole entry): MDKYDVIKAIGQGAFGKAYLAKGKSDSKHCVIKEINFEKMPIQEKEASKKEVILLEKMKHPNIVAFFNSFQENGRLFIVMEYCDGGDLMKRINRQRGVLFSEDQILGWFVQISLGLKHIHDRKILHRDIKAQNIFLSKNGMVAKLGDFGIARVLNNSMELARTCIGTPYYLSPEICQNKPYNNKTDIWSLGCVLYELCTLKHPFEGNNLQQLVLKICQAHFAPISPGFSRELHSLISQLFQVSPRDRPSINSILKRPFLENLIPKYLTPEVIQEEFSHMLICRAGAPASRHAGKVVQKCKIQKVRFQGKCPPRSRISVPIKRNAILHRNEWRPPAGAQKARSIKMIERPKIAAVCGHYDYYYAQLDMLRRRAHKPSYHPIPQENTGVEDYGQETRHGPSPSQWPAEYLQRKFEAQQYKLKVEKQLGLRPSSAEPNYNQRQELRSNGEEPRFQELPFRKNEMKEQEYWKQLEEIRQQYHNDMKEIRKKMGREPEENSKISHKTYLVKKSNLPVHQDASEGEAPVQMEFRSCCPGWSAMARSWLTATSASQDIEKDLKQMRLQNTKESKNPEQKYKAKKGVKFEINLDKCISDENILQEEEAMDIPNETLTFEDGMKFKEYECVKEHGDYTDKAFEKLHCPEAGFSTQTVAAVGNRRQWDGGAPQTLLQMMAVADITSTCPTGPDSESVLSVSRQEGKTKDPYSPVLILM
# [7] = target: T6, Serine/threonine-protein kinase Nek6 (Homo sapiens) (UniProt Q9HC98); test: Inhibition of NEK6 (unknown origin) at 1 uM relative to control
# T6 sequence (whole entry): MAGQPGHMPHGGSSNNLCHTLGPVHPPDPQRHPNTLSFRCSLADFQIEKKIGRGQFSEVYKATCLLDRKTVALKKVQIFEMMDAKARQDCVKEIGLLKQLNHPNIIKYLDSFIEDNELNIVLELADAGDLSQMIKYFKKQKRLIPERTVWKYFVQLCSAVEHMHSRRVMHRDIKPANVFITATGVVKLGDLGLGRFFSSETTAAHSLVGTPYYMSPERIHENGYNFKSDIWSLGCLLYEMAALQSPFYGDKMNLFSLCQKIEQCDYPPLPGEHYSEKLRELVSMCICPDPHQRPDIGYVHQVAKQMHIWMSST
# [8] = target: T7, Serine/threonine-protein kinase Nek9 (Homo sapiens) (UniProt Q8TD19); test: Inhibition of NEK9 (unknown origin) at 1 uM relative to control
# T7 sequence (whole entry): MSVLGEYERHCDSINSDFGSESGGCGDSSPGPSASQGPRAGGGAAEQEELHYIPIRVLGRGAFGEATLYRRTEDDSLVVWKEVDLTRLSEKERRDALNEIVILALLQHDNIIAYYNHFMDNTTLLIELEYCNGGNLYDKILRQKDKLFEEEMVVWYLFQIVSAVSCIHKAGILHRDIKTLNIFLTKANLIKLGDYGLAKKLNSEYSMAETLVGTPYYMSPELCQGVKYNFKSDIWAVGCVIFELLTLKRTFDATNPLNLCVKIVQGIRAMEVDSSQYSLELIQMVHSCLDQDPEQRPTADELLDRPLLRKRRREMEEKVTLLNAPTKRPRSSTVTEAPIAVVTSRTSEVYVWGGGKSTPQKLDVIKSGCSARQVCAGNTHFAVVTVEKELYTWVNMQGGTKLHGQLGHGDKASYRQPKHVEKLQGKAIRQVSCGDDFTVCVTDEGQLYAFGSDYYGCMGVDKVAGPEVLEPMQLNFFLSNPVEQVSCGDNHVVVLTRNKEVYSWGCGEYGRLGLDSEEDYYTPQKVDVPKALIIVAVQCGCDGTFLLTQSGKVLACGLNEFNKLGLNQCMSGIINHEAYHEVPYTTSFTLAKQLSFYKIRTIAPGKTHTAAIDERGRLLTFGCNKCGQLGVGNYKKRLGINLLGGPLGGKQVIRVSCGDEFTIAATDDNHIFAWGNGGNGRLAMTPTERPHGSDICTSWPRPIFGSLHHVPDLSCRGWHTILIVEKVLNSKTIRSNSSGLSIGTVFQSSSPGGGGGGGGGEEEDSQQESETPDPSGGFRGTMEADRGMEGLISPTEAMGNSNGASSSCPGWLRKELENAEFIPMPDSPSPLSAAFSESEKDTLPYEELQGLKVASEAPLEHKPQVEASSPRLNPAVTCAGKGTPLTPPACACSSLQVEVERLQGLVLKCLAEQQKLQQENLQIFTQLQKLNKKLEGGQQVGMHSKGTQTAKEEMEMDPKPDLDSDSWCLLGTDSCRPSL
# UniProt Q8TDX7, sequence (Q8TDX7 whole entry, looked up): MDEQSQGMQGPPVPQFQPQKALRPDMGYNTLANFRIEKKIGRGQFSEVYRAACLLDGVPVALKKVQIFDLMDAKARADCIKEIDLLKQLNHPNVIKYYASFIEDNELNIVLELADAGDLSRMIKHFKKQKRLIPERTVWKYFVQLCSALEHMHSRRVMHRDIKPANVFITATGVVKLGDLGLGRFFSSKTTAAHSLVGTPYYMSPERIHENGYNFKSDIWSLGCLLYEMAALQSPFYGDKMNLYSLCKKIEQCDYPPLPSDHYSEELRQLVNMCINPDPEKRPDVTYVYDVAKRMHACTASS
Structure (SMILES),inhibition [1] [%],inhibition [2] [%],inhibition [3] [%],inhibition [4] [%],inhibition [5] [%],inhibition [6] [%],inhibition [7] [%],inhibition [8] [%]
O=C1NC(=O)C(c2ccc(Cl)cc2)=C1Nc1cccc(C(=O)O)c1,0,17,0,0,55,17,0,0
O=C1NC(=O)C(c2ccccc2Cl)=C1Nc1ccccc1,1,0,26,73,56,0,0,14
O=C1NC(=O)C(c2ccc(Cl)cc2)=C1Nc1cccc(O)c1,10,11,0,12,50,0,0,0
O=C1NC(=O)C(c2ccc(Cl)cc2)=C1Nc1ccc(O)c(Cl)c1,0,29,0,3,55,0,10,0

# Now from value to compound, other results behind:
inhibition [1] [%],inhibition [2] [%],inhibition [3] [%],inhibition [4] [%],inhibition [5] [%],inhibition [6] [%],inhibition [7] [%],Structure (SMILES),inhibition [8] [%]
0,10,37,6,88,4,0,O=C1NC(=O)C(c2ccccc2)=C1Nc1ccc(Cl)c(C(=O)O)c1,36
0,21,4,0,7,0,0,O=C1NC(=O)C(c2ccccc2)=C1Nc1ccccc1,0
0,0,0,7,52,0,3,O=C1NC(=O)C(c2ccccc2)=C1Nc1cc(Cl)c(O)c(Cl)c1,0
0,7,5,0,6,2,0,O=C1NC(=O)C(c2ccccc2Cl)=C1Nc1cccc(C(=O)O)c1,26
